Results published in patent US9745597B2, “Compositions and methods for controlling fungal and bacterial diseases in plants” (priority 2014, dated 2017).

What was measured:
Venturia inaequalis = assay: Apple scab bioassay (Example 2)
Experimental: (§1) The present study investigated the efficacy against a variety of plant pathogens of the commercial product, […]® ASO (Bacillus subtilis QST713 fermentation product), with and without GENAPOL® LRO (sodium C12/C14-fatty alcohol diglycol ether sulfate). The application rates of […]® ASO refer to the amount of (1.67%) Bacillus subtilis QST713 contained in the product […]® ASO.
(§2) ® ASO was diluted in water to concentrations of 1000 ppm, 500 ppm, 250 ppm, and 125 ppm and applied to plants with or without GENAPOL® LRO applied at a concentration of 3000 ppm. Subsequently, the plants were inoculated with the various plant pathogens and scored for percent disease control with the following eight plant pathogen bioassays: (1) tomato late blight, Phytophthora infestans (“Late Blight”); (2) grape downy mildew, Plasmopara viticola (“Downy Mildew”); (3) cucumber powdery mildew, Sphaerotheca fuliginea (“Powdery Mildew”); (4) apple scab, Venturia inaequalis (“Scab”); (5) tomato early blight, Alternaria solani (“Early Blight”); (6) brown rust of snap bean, Uromyces appendiculatus (“Bean Rust”); (7) Asian soybean rust, Phakopsora pachyrhizi (“Soy Rust”); and (8) Botrytis grey mould on snap beans, Botrytis cinerea (“Grey Mould”).

Uromyces appendiculatus = assay: Field trials with dry beans inoculated with Uromyces appendiculatus (Example 5); conditions: dosage 0.3%; 5 applications; 20 days after final application
Experimental: Two field trials were conducted with dry beans that were artificially inoculated with Uromyces appendiculatus. 5 treatments and 2 inoculations were done between July 1 and July 22 at a growth stage of BBCH29 to BBCH63 in 5 to 6 days interval as outlined in Table 12. The percent disease control shown in Table 11 is the result of the last evaluation made 20 days after the final application, done by visual observation of disease symptoms. 0% means an efficacy which corresponds to that of the untreated control while an efficacy of 100% means that no disease was observed.

Botrytis cinerea [1] = assay: In vivo preventive test on Botrytis (beans) (Example 14); conditions: rate 0.3%; lesion size 3 days after inoculation
Experimental: […]® ASO (Bacillus subtilis QST713 fermentation product) and the adjuvants AGNIQUE® PG8107G (C8-10 alkyl polyglycoside), GENAPOL® LRO (sodium C12/C14-fatty alcohol diglycol ether sulfate), SC-TankMix (rapeseed oil methyl ester; castor oil ethoxylated) or MERO® (rapeseed oil methyl ester) were diluted in water to the desired concentrations and applied separately and in combination to young bean plants. After the spray coating had dried on, 2 small pieces of agar covered with growth of Botrytis cinerea were placed on each leaf. The inoculated plants were placed in a darkened chamber at 14° C. and a relative atmospheric humidity of 100%. 3 days after the inoculation, the size of the lesions on the leaves was evaluated. 0% means an efficacy which corresponds to that of the untreated control, while an efficacy of 100% means that no disease is observed.

Alternaria solani = assay: In vivo preventive test on Alternaria (tomatoes), equilibrated mixtures (Example 18); conditions: rate 0.12%; 3 days after inoculation
Botrytis cinerea [2] = assay: In vivo preventive test of Bacillus products on Botrytis (pepper) (Example 33)
Experimental: Several commercially available Bacillus products formulated as wettable powders (WP) were mixed with GENAPOL® LRO (sodium C12/C14-fatty alcohol diglycol ether sulfate). The Bacillus products included […]® MAX (Bacillus subtilis QST713), DOUBLE NICKEL55™ (Bacillus amyloliquefaciens strain D747), SUBTILEX® (Bacillus subtilis MBI600), and TAEGRO® (Bacillus subtilis var. amyloliquefaciens FZB24).
The treatments were prepared by mixing 20% Bacillus product (WP) with 5% GENAPOL® LRO (sodium C12/C14-fatty alcohol diglycol ether sulfate) and diluting the mixture in DI water. Control treatments included 20% Bacillus product (WP) without GENAPOL® LRO (sodium C12/C14-fatty alcohol diglycol ether sulfate) in DI water and 5% GENAPOL® LRO (sodium C12/C14-fatty alcohol diglycol ether sulfate) in DI water.
The concentrations indicated in the table represent dilution of the 5% GENAPOL® LRO, 20% Bacillus product (WP), or 20% Bacillus product (WP)+5% GENAPOL® LRO to the percentages (v/v) shown. The treatments were applied to pepper plants and allowed to dry. The next day, the pepper plants were inoculated with a suspension of Botrytis cinerea. After disease was evident in the untreated controls the plants were evaluated for efficacy of disease control. Each efficacy value represents the average of three measurements. 0% means an efficacy which corresponds to that of the untreated control, while an efficacy of 100% means that no disease is observed.

[3] = test system: Pseudomonas syringae pv. tomato; assay: In vivo control of Pseudomonas syringae pv. tomato on tomato plants (Example 31); conditions: average of three measurements
Sphaerotheca fuliginea = assay: Cucumber powdery mildew bioassay (Example 2); conditions: GENAPOL LRO 3000 ppm
Experimental: as §1, §2

Erwinia carotovora = assay: In vitro control of Erwinia carotovora, OD600 in 96-well plates (Example 27); type: cell-based; conditions: […], mixture = 95% cell-free whole broth + 5% adjuvant
Experimental: A whole broth culture of Bacillus subtilis QST713 was prepared in a soy-based medium. Bacillus subtilis cells were removed from the whole broth culture by centrifugation. […] After several hours, the OD600 in each well was measured and compared to the initial OD600 to determine the relative bacterial growth compared to that of the bacterial suspension in the untreated well.

Erwinia amylovora = assay: In vivo control of Erwinia amylovora on apple blossoms (Example 30); conditions: after 6-7 days
Experimental: Apple blossoms were placed in a sugar solution and inoculated with a Fire Blight (Erwinia amylovora) bacterial suspension. The blossoms were then sprayed with the treatments shown in Table 40 at the indicated concentrations diluted in water. Streptomycin sulfate was included as a positive control. The blossoms were incubated at 23-25° C. and a relative humidity of 100%. After 6-7 days, the number of blossoms with bacterial ooze was determined, and the efficacy of each treatment was calculated. The efficacy was determined by the reduction in infected blossoms compared to the control blossoms treated with water. The test was carried out at least four times for each treatment, and the average disease control was reported.

sodium C12/C14-fatty alcohol diglycol ether sulfate [GENAPOL ® LRO]
Percent Disease Control Scab (Venturia inaequalis; GENAPOL LRO 3000 ppm): 84%
Efficacy in % Found (Venturia inaequalis; Scab, rate 3000 ppm): 84%
Disease Control [%] Mean of 2 Trials Found (Uromyces appendiculatus): 5%
Efficacy in % Found (Botrytis cinerea [1]): 23%
Efficacy in % Found (Alternaria solani): 27%
Efficacy in % Found (Botrytis cinerea [2]; rate 1% (v/v dilution of 5% GENAPOL LRO or 20% Bacillus product WP)): 10%
Efficacy in % Found (Botrytis cinerea [2]; rate 2% (v/v dilution of 5% GENAPOL LRO or 20% Bacillus product WP)): 24%
Efficacy in % Found (Botrytis cinerea [2]; rate 4% (v/v dilution of 5% GENAPOL LRO or 20% Bacillus product WP)): 69%
Efficacy in % ([3]; rate 0.25% v/v): 10%
Efficacy in % ([3]; rate 0.50% v/v): 50%
Efficacy in % ([3]; rate 1% v/v): 60%
Efficacy in % ([3]; rate 2% v/v): 74%
Efficacy in % ([3]; rate 4% v/v): 66%
Percent Disease Control Powdery Mildew (Sphaerotheca fuliginea): 20%
Efficacy in % Found (Erwinia carotovora; rate 0.11%): 13%
Efficacy in % Found (Erwinia carotovora; rate 0.22%): 1%
Efficacy in % Found (Erwinia carotovora; rate 0.44%): 36%
Efficacy in % (Erwinia amylovora; concentration 0.5 % applied to blossoms): 15%
Efficacy in % (Erwinia amylovora; concentration 1 % applied to blossoms): 8%
